One test relates to HSkMC. The test is described as follows: cytotoxicity call (relative viability < 0.9). The settings on record: 10 µM.
The next test has as its system HepG2. Briefly: cytotoxicity call (relative viability < 0.9). The conditions noted are these: 10 µM.
Another test has as its system S. aureus RN4220. The test is described as follows: growth inhibition call (relative growth <= 0.2). The conditions noted are these: 50 µM.

The other results are listed elsewhere or left out.

Turning to `CC[N+](C)(C)c1cccc(O)c1.[Cl-]`, the cytotoxicity call in the test with HSkMC and in the test on HepG2 was “inactive” in each case. For the same compound, the growth inhibition call in the test with S. aureus RN4220 was “inactive”.

Consider `COc1ccc(S(=O)(=O)Nc2ccc3c(c2)C(=O)N([C@H](C)CO)C[C@H](C)[C@H](CN(C)Cc2ccc4c(c2)OCO4)OCCCC[C@H](C)O3)cc1`, for which the cytotoxicity call in the test on HSkMC is “inactive”. The cytotoxicity call with HepG2 is “active”. For the same compound, the growth inhibition call in the test on S. aureus RN4220 is “inactive”.

On to `CC(C)[N+]1(C)C2CCC1CC(OC(=O)C(CO)c1ccccc1)C2.[Br-]` (stereo unspecified), for which the cytotoxicity call with HSkMC and with HepG2 was “inactive” in each case. For the same compound, the growth inhibition call in the test on S. aureus RN4220 was “inactive”.

In the case of `C[C@H]1CN([C@@H](C)CO)C(=O)c2cc(NC(=O)CCCCCC(=O)Nc3ccccc3N)ccc2O[C@H]1CN(C)Cc1ccc(Cl)c(Cl)c1`, the cytotoxicity call with HSkMC and in the test with HepG2 was “inactive” each time. Further, the growth inhibition call in the test on S. aureus RN4220 was “inactive”.

For the compound `C[C@@H]1CN([C@H](C)CO)C(=O)c2cc(NS(=O)(=O)c3cccs3)ccc2O[C@@H](C)CCCCO[C@H]1CN(C)Cc1ccc(C(F)(F)F)cc1`, in the test on HSkMC, the cytotoxicity call was “inactive”. For the same compound, in the test with HepG2, the cytotoxicity call was “active”. The growth inhibition call in the test with S. aureus RN4220 was “inactive”.

With `COc1cc(NC(=O)c2cccc(-n3cc(NC(=O)Nc4cccc(C)c4)cn3)c2)cc(OC)c1OC`, the cytotoxicity call with HSkMC and in the test on HepG2 was “active” each time. The growth inhibition call with S. aureus RN4220 is “inactive”.

Consider `CCc1c(C)[nH]c2c(C#N)cnn2c1=O`, for which the cytotoxicity call in the test with HSkMC and with HepG2 was “inactive” in each case. Also, the growth inhibition call in the test on S. aureus RN4220 was “inactive”.

For `N=C(NO)C(=O)Nc1ccccc1`, the cytotoxicity call in the test with HSkMC and with HepG2 was “inactive” each time. Further, the growth inhibition call with S. aureus RN4220 was “inactive”.

For the compound `C[C@H]1CCCCO[C@@H](CN(C)S(=O)(=O)c2cn(C)cn2)[C@@H](C)CN([C@@H](C)CO)C(=O)c2cc(NS(=O)(=O)c3cn(C)cn3)ccc2O1`, the cytotoxicity call in the test on HSkMC and in the test on HepG2 was “inactive” in each case. Besides, the growth inhibition call in the test on S. aureus RN4220 was “inactive”.

As for `COc1ccccc1C(=O)Nc1ccc2c(c1)C(=O)N(C)[C@@H]1CC[C@@H](CC(=O)NCCc3ccncc3)O[C@@H]1CO2`, the cytotoxicity call with HSkMC and in the test with HepG2 was “inactive” each time. Further, the growth inhibition call in the test with S. aureus RN4220 is “inactive”.

On to `CCCNC(=O)N[C@@H]1C=C[C@H](CC(=O)N2CCN(C)CC2)O[C@H]1CO`, for which the cytotoxicity call in the test with HSkMC and in the test with HepG2 was “inactive” each time. The growth inhibition call in the test on S. aureus RN4220 is “inactive”.

With `COc1ccc(S(=O)(=O)Nc2ccc3c(c2)CC(=O)N([C@H](C)CO)C[C@@H](C)[C@@H](CN(C)S(=O)(=O)c2ccc(OC)cc2)O3)cc1`, the cytotoxicity call with HSkMC and in the test with HepG2 was “inactive” each time. For the same compound, the growth inhibition call in the test on S. aureus RN4220 is “inactive”.

In the case of `Clc1ccc(-c2onc3cc(-c4ccccc4)ccc23)cc1`, in the test with HSkMC, the cytotoxicity call is “inactive”. The cytotoxicity call with HepG2 is “active”. For the same compound, in the test with S. aureus RN4220, the growth inhibition call was “inactive”.

In the case of `CCO[C@H]1OC(C(=O)N2CCN(Cc3ccccc3)CC2)=C[C@@H](c2csc3ccccc23)[C@@H]1CCCOC(=O)NCCCCCC(=O)NO`, the cytotoxicity call in the test with HSkMC and in the test with HepG2 was “inactive” throughout. Besides, the growth inhibition call in the test on S. aureus RN4220 was “inactive”.

Regarding `C[C@@H]1CN([C@@H](C)CO)C(=O)Cc2cc(NS(=O)(=O)c3cn(C)cn3)ccc2O[C@H]1CN(C)S(=O)(=O)c1ccccc1`, the cytotoxicity call in the test with HSkMC and in the test on HepG2 was “inactive” throughout. Also, the growth inhibition call in the test with S. aureus RN4220 was “inactive”.

In the case of `COc1ccc(CN(C)C[C@H]2OCCCC[C@@H](C)Oc3ccc(NC(=O)Cc4ccccc4)cc3C(=O)N([C@@H](C)CO)C[C@H]2C)cc1`, the cytotoxicity call in the test on HSkMC and in the test with HepG2 was “inactive” in each case. In the test with S. aureus RN4220, the growth inhibition call was “inactive”.

In the case of `CCCCOc1ccc(C(=O)CCN2CCCCC2)cc1.Cl`, the cytotoxicity call in the test with HSkMC is “inactive”. For the same compound, in the test with HepG2, the cytotoxicity call was “active”. Also, the growth inhibition call in the test with S. aureus RN4220 was “inactive”.

Consider `C[C@H]1CN([C@@H](C)CO)C(=O)c2cc(NC(=O)CCC(F)(F)F)ccc2O[C@H]1CN(C)Cc1ccc(Oc2ccccc2)cc1`, for which the cytotoxicity call with HSkMC is “inactive”. In addition, the cytotoxicity call with HepG2 was “active”. Moreover, the growth inhibition call in the test on S. aureus RN4220 was “inactive”.

As to `CN1CCN(C(=O)C[C@H]2CC[C@@H]3[C@H](COc4ccc(NC(=O)c5cscn5)cc4C(=O)N3C)O2)CC1`, the cytotoxicity call in the test on HSkMC and in the test on HepG2 was “inactive” throughout. In addition, the growth inhibition call in the test on S. aureus RN4220 was “inactive”.

As for `C[C@H](CO)N1C[C@H](C)[C@H](CN(C)Cc2ccncc2)Oc2ccc(NC(=O)Nc3cccc4ccccc34)cc2CC1=O`, the cytotoxicity call with HSkMC and in the test on HepG2 was “active” each time. The growth inhibition call in the test on S. aureus RN4220 was “inactive”.

On to `COc1ccc(CN(C)C[C@@H]2Oc3ccc(NC(=O)CCCCCC(=O)Nc4ccccc4N)cc3CC(=O)N([C@H](C)CO)C[C@H]2C)cc1`, for which the cytotoxicity call in the test on HSkMC and with HepG2 was “inactive” each time. Moreover, the growth inhibition call with S. aureus RN4220 was “inactive”.

For `Cc1ccc(S(=O)(=O)Nc2ccc3c(c2)CC(=O)N([C@H](C)CO)C[C@H](C)[C@H](CN(C)S(=O)(=O)c2c(C)noc2C)O3)cc1`, the cytotoxicity call with HSkMC and with HepG2 was “inactive” in each case. Also, in the test with S. aureus RN4220, the growth inhibition call was “inactive”.

Take `C[C@@H]1CCCCO[C@H](CN(C)C(=O)Nc2ccc3c(c2)OCO3)[C@@H](C)CN([C@H](C)CO)C(=O)c2cc(NC(=O)C3CCCCC3)ccc2O1`: the cytotoxicity call in the test on HSkMC and in the test with HepG2 was “inactive” throughout. Further, the growth inhibition call with S. aureus RN4220 is “inactive”.

As to `CO[C@@H]1CN(C)C(=O)c2ccc(NC(=O)Nc3ccccc3F)cc2OC[C@@H](C)N(CCC(F)(F)F)C[C@H]1C`, the cytotoxicity call with HSkMC and in the test on HepG2 was “inactive” each time. Also, the growth inhibition call with S. aureus RN4220 was “inactive”.

With `Cn1ccnc1C(=O)N[C@@H]1CN(C(N)=O)[C@H]2CCCO[C@@H]12`, the cytotoxicity call in the test with HSkMC and in the test with HepG2 was “inactive” throughout. Moreover, in the test on S. aureus RN4220, the growth inhibition call was “inactive”.

Take `COCCN1CCC(C(=O)NO)(S(=O)(=O)c2ccc(Oc3ccc(OC(F)(F)F)cc3)cc2)CC1`: the cytotoxicity call in the test on HSkMC and in the test with HepG2 was “inactive” throughout. Besides, in the test on S. aureus RN4220, the growth inhibition call is “inactive”.

`O=C(C[C@@H]1C=C[C@H](NS(=O)(=O)c2ccc(F)cc2)[C@H](CO)O1)NCCN1CCCCC1`: the cytotoxicity call in the test on HSkMC (human skeletal muscle cells) and in the test on HepG2 was “inactive” throughout. Besides, the growth inhibition call with S. aureus RN4220 is “inactive”.

The values are drawn from the antibiotic and cytotoxicity screens of Wong et al. (2023).
